PubChem BioAssay AID463173 (ICCB-Longwood Screening Facility, Harvard Medical School, 2010)
In all, about 52,000 compounds went through this assay and about 4,300 (8.3%) were called active. No stated cut-off is given here; in the data, active means survival mostly below about 52% (no sharp cut-off); inactive means mostly above about 56%. The list shows a part of the results.

The molecules below were run on DeltatarO mutant (assay: S. aureus survival, RN4220 and DeltatarO strains – OD600, teichoic acid synthesis inhibitors, primary screen (AID 463173)). Conditions: S. aureus RN4220 wild type/DeltatarO growth, OD600, 18 h, stronger effect = lower value, screened at 18.75 µg/mL (by protocol).

Row | Compound | survival
1 | CCN1C(=O)c2ccccc2S(=O)(=O)c2ccc(C(=O)NCc3ccc(OC)cc3)cc21 | inactive: 70%
2 | O=C(CN(C(=O)c1ccc(Cl)nc1)C1CCCC1)NCc1ccc2c(c1)OCO2 | inactive: 87%
3 | CCC(C(=O)NC1CCCCC1)n1c(SCc2cccc(C)c2)nc2ccncc21 (centres undefined) | inactive: 74%
4 | CC(C)n1nnnc1SCC(=O)NCc1ccco1 | inactive: 94%
5 | Cn1c(C(=O)N2CCC(C(=O)NCCc3ccccc3)CC2)cc2sccc21 | inactive: 81%
6 | N#Cc1ccccc1CSc1nnc2ccc3ccccc3n12 | inactive: 59%
7 | COCc1c(Br)c(C)nc2sc3c(=O)n(-c4cccc(Br)c4)nnc3c12 | inactive: 77%
8 | CN(C(=S)SCC1=CCS(=O)(=O)C1)C1CCS(=O)(=O)C1 (centres undefined) | inactive: 94%
9 | O=C(CC1Nc2ccccc2NC1=O)Nc1ccccc1C(F)(F)F (centres undefined) | inactive: 93%
10 | COCCNC(=O)Cn1c(=O)c2cccn2c2ccc(F)cc21 | inactive: 86%
11 | O=C(CN(c1ccc(Cl)c(C(F)(F)F)c1)S(=O)(=O)c1ccccc1)Nc1cccnc1 | active: 47%
12 | CCc1ccccc1NC(=O)CSc1nnc(-c2ccccc2)c(-c2ccccc2)n1 | inactive: 88%
13 | CC/C(=N/NC(=O)C1C2CCCCC21)c1ccc(O)cc1 (centres undefined) | inactive: 95%
14 | COc1cc(OC)cc(-c2cc3nc(C)c(CCC(=O)Nc4ccccc4OC)c(C)n3n2)c1 | inactive: 52%
15 | O=S(=O)(NCC(c1ccco1)N1CCN(c2ccccc2)CC1)c1ccccc1 (centres undefined) | inactive: 91%
16 | CCCN(C(=O)c1c(C)oc2ncnc(N3CCOCC3)c12)c1ccc(Cl)c(Cl)c1 | inactive: 46%
17 | CCOc1ccc(Cn2nnc(C(=O)Nc3ccc(Cl)cc3)c2N)cc1 | inactive: 88%
18 | CN(C1CCCCC1)S(=O)(=O)c1ccc2c(c1)c(=O)c(C(=O)NCc1ccc(F)cc1)cn2C | inactive: 92%
19 | COc1ccccc1CNC(=O)C1CCN(C(=O)c2sccc2-n2cccc2)CC1 | inactive: 81%
20 | CCn1ccc2c(OCC(=O)Nc3ccc(C(C)=O)cc3)cccc2c1=O | inactive: 66%
21 | COc1ccccc1CNC(=O)c1cc2c(-c3ccc(Cl)cc3)nn(C)c2s1 | inactive: 122%
22 | CCc1nnc(NC(=O)c2nc(SC)ncc2Cl)s1 | inactive: 109%
23 | NC(=O)CSc1nc2c(oc3ccccc32)c(=O)n1Cc1ccccc1 | inactive: 71%

Row | Compound | survival
24 | CCSc1oc(-c2cccs2)nc1S(=O)(=O)c1ccc(Br)cc1 | inactive: 56%
25 | Cc1ccccc1C(=O)Nc1c(C(=O)Nc2cccc(F)c2)oc2ccccc12 | active: 46%
26 | O=C(NCc1ccc2c(c1)OCO2)c1ccc2c(c1)N(Cc1ccccc1F)C(=O)c1ccccc1S2=O (centres undefined) | inactive: 88%
27 | COc1ccccc1NC(=O)c1cc2c(C)nn(-c3ccccc3)c2s1 | active: 0%
28 | COc1ccc(N2CCN(C(=O)COCc3cc(-c4ccc5c(c4)OCO5)on3)CC2)cc1 | inactive: 92%
29 | COc1ccc(NC(=O)c2sc3nc(C(F)(F)F)cc(C)c3c2N)cc1OC | inactive: 140%
30 | Cc1ccc(NC(=O)c2nc(S(C)(=O)=O)ncc2N(Cc2ccco2)Cc2cccs2)cc1C | active: 40%
31 | CCN(CC)S(=O)(=O)c1ccc2c(c1)nc(CN(C)C(=O)Nc1ccc(C)c(F)c1)n2C | inactive: 77%
32 | O=C(OCC1CCCO1)c1ccc2c(c1)N(Cc1ccccc1)C(=O)c1ccccc1S2(=O)=O (centres undefined) | inactive: 89%
33 | CCc1ccccc1NC(=O)CN1C(=O)CCSc2ccc(S(=O)(=O)N3CCCC3)cc21 | inactive: 102%
34 | CCOC(=O)C1CCCN(C(=O)Cn2ncc3c4ccccc4n(Cc4ccccc4)c3c2=O)C1 (centres undefined) | inactive: 108%
35 | CCc1ccccc1NC(=O)C(C)n1c(=O)cc(C)c2c(C)nn(-c3ccccc3)c21 (centres undefined) | inactive: 90%
36 | Cc1ccc(Cn2ccnc2SCC(=O)Nc2nnc(C)s2)cc1 | inactive: 55%
37 | COc1ccc(OC)c(NC(=O)Nc2c(C)n(C)n(-c3ccccc3)c2=O)c1 | inactive: 88%
38 | Cc1cc(C)cc(Oc2nc3ccccn3c(=O)c2/C=C(\C#N)c2nc3ccccc3s2)c1 | inactive: 60%
39 | O=C(NC1CCN(Cc2ccccc2)CC1)c1ccc(Cn2c(=O)c3ccccc3n(Cc3ccc(F)cc3)c2=O)cc1 | inactive: 85%
40 | Cn1c(=O)cc(SCC(=O)N2CCN(c3ccccc3F)CC2)c2ccc(Cl)cc21 | inactive: 70%
41 | Cc1ccccc1OCCSc1nc2ccc(NC(=O)c3cccs3)cc2s1 | inactive: 49%
42 | CCn1nc(-c2ccccc2)c(-c2ccccc2)c(C(=O)Nc2ccc(NC(C)=O)cc2)c1=O | inactive: 60%
43 | Cc1ccc(C(=O)NC2(C(F)(F)F)N=C(c3ccccc3)N(Cc3ccccc3)C2=O)cc1 (centres undefined) | inactive: 66%
44 | Cc1ccc(C(=O)Oc2cc(-c3ccc4c(c3)OCO4)cc(=O)c3c(C)oc(C)c23)cc1 | inactive: 119%
45 | Cc1ccc(NC(=O)C2CCN(c3nc(-c4ccc(C(C)C)cc4)no3)CC2)c(Cl)c1 | inactive: 79%
46 | Cc1ccccc1NC(=O)CSc1nc(-c2ccco2)nc2cc(=O)[nH]n12 | inactive: 87%

Row | Compound | survival
47 | CC(=O)c1ccc(NS(=O)(=O)c2ccc(-n3cccn3)cc2)cc1 | inactive: 119%
48 | CCOc1ccc(CNC(=O)c2cc(-c3ccc(Cl)s3)nc3ccccc23)cc1 | inactive: 96%
49 | Cc1ccc2c(CNCc3ccc(C)o3)c(C(=O)O)n(Cc3ccc(F)cc3)c2c1 | inactive: 77%
50 | O=C(c1ccc2c(c1)N(Cc1ccc(Cl)cc1)C(=O)c1ccccc1S2=O)N1CCCCC1 (centres undefined) | inactive: 72%
51 | O=C(NCCN1CCCCC1)c1ccc(Cn2c(SCc3ccccc3)nc3cccnc32)cc1 | inactive: 148%
52 | COCCCn1c(-c2ccc(S(=O)(=O)N3CCOCC3)cc2)csc1=Nc1ccccc1 | active: 52%
53 | CC1(c2ccc(Cl)cc2)CC(C)(C)N(C(=O)c2cccc(F)c2)c2ccccc21 (centres undefined) | active: 11%
54 | COc1ccc(CNC(=O)c2cc3sccc3n2Cc2ccc(C)cc2)cc1 | inactive: 74%
55 | O=C(Cc1ccccc1)Nc1sc2c(c1C(=O)Nc1ccc(Br)cc1)CCCC2 | active: 57%
56 | NC(=O)C1(C(N)=O)CCC1 | inactive: 81%
57 | Cc1ccc(C(=O)Nc2ccccc2)cc1S(=O)(=O)Nc1ccccc1 | active: 46%
58 | COC(=O)c1c(C)oc2ccc(N(C(=O)c3ccncc3)S(=O)(=O)c3cc(C)ccc3C)cc12 | inactive: 46%
59 | Cc1ccc(NC(=O)C2CCC(CNS(=O)(=O)c3cccc4nsnc34)CC2)c(Cl)c1 (centres undefined) | active: 47%
60 | CC(C)N(C(=O)c1cccs1)C(C)C | inactive: 97%
61 | COc1ccc(N2CCN(C(=O)C3CCN(S(=O)(=O)c4cn(C)cn4)CC3)CC2)cc1 | inactive: 69%
62 | Cc1ccc(OC(=O)CSc2nnc(-c3ccc4c(c3)OCO4)o2)cc1 | inactive: 70%
63 | Cc1ccc(-n2ncc3c(N4CCC(Cc5ccccc5)CC4)ncnc32)cc1C | inactive: 88%
64 | Cc1cccc(N(C)C(=O)Cc2c(C(=O)O)[nH]c3ccccc23)c1 | inactive: 134%
65 | Cc1cccc(NC(=O)CCNS(=O)(=O)c2ccc3c(c2)CCN3C(=O)C2CC2)c1 | inactive: 86%
66 | CCOC(=O)C1CCN(C(c2ccc(C)cc2)c2c(O)cc(C)n(CCOC)c2=O)CC1 (centres undefined) | inactive: 76%
67 | CCOc1ccc(-c2cc(CCCC(=O)NCCc3cc(OC)c(OC)c(OC)c3)no2)cc1 | active: 43%
68 | CN(C)c1nc(NCCNS(=O)(=O)c2ccc(Cl)cc2)nc(N(C)C)n1 | inactive: 84%
69 | COc1ccc(CCNC(=O)CCCn2nc(C)c3sc4ccccc4c3c2=O)c(OC)c1 | inactive: 74%

Row | Compound | survival
70 | CCOc1ccc(NC(=O)Cn2c(=O)n(CCCS(=O)(=O)C3CCCCC3)c(=O)c3ccccc32)cc1 | inactive: 77%
71 | O=C1NC(c2ccccc2)/C(=C(\O)c2ccccc2)C1=O (centres undefined) | inactive: 70%
72 | CC(C)(C)NSc1nc2ccccc2s1 | active: 58%
73 | COC(=O)c1cc(-c2ccc(OC)c(OC)c2)nc2ccccc12 | inactive: 72%
74 | CC(C)(C)OC(=O)N1CCC(c2c(C(=O)N3CCCCC3)cnn2-c2cccc(F)c2)CC1 | inactive: 126%
75 | CC(=O)c1ccc(N2CCN(C(=O)CCc3nnc4n(C)c(=O)c5sccc5n34)CC2)cc1 | inactive: 55%
76 | COc1cc(OC)c(NC(=O)c2noc3c2CSc2ccccc2-3)cc1Cl | inactive: 69%
77 | CCCCn1c(SCC(=O)Nc2ccc(OCC)cc2)nc2ccsc2c1=O | inactive: 130%
78 | Cc1ccc(CNC(=O)CSc2ncc3c(n2)-c2ccc(Cl)cc2N(Cc2ccccc2)S3(=O)=O)cc1 | inactive: 84%
79 | Cc1ccc(NS(=O)(=O)c2cc3[nH]c(=O)c(=O)[nH]c3cc2C)cc1N(C)C | inactive: 74%
80 | CCc1ccccc1NC(=O)[C@@H](c1ccccc1)N1Cc2ccccc2C1=O | active: 4%
81 | Cc1ccc(NC(=O)CCCn2c(=O)c3cccn3c3cccnc32)cc1C | inactive: 79%
82 | Cc1ccc(C)c(NC(=O)CSc2nnc(-c3cc4occc4n3C)n2-c2ccccc2C)c1 | inactive: 94%
83 | Cc1cccc(C(=O)Nc2sc3c(c2C(=O)NC(C)C)CCCC3)c1 | active: 46%
84 | Cn1c(=O)c2c(nc(NCCc3ccccc3)n2Cc2ccc(Cl)cc2)n(C)c1=O | inactive: 48%
85 | CCOC(=O)c1cc(S(=O)(=O)NCc2cccc(Cl)c2)[nH]n1 | inactive: 88%
86 | COc1ccc(OCC(=O)OCc2cc(=O)n3nc(C4CC4)sc3n2)cc1 | inactive: 61%
87 | Cc1ccc(Nc2c(-c3ccc(C)s3)nc3ncccn23)cc1 | active: 9%
88 | CCOC(=O)c1c(NC(=O)/C=C/c2ccc(C)cc2)sc2c1CCCC2 | active: 22%
89 | CCCCOC(=O)c1ccc(NC(=O)c2cc(-c3cccs3)on2)cc1 | inactive: 87%
